# The campaign covered roughly 310,000 compounds. About 2,200 (0.71%) showed an effect of 50% or more. Effects have a minus sign here. This is one part of the list.
# Target: human ether-à-go-go-related gene (hERG) potassium channel (human, UniProt Q12809)
# Assay: primary screen, population patch clamp on CHO cells stably expressing hERG
# Chain of human ether-à-go-go-related gene (hERG) potassium channel (Q12809 whole entry, looked up): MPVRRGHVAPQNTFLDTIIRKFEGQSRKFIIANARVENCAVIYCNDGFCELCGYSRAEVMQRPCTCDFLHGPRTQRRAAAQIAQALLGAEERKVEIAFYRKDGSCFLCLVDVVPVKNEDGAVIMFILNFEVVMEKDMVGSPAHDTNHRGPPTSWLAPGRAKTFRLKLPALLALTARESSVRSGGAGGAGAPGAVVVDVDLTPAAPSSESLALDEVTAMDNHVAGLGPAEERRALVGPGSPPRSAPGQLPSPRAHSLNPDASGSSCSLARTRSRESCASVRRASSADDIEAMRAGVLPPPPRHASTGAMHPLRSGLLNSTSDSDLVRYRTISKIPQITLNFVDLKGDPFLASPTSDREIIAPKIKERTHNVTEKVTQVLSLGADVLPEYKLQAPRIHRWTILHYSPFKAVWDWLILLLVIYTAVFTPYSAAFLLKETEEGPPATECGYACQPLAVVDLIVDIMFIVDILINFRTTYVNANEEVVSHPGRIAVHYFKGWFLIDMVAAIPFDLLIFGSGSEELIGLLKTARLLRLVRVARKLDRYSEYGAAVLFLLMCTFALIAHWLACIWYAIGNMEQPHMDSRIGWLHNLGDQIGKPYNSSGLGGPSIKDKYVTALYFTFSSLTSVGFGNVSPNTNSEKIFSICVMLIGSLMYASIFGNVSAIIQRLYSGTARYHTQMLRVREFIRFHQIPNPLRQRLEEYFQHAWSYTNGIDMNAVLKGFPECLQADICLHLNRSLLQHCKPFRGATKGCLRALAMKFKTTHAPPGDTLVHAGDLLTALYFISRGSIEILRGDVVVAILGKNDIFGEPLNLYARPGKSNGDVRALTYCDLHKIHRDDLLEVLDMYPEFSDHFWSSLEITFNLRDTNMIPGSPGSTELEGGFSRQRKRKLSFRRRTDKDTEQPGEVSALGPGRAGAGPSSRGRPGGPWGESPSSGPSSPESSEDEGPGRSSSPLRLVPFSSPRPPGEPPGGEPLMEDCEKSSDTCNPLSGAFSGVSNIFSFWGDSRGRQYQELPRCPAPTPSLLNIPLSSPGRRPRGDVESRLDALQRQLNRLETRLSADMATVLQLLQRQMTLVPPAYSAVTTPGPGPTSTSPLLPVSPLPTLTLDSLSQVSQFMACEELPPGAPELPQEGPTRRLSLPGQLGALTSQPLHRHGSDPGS
row,Compound,"hERG current change (%, negative = inhibition) at 1uM"
1,Cn1c(=O)c2ccccc2n(CC(=O)N2CCCc3ccccc32)c1=O,14.3%
2,CN(C)S(=O)(=O)c1cccc(C(=O)N2CCc3ccccc32)c1,4.23%
3,CCC(C)(C)n1nnnc1C(c1ccc(OC)c(OC)c1)N1CCN(c2ccc(F)cc2)CC1.Cl (stereo not shown),-5.98%
4,Nc1c(CO)nnn1-c1ccccc1,11%
5,Cc1ccc(Cn2c(CCNc3nc(-c4ccc(Cl)c([N+](=O)[O-])c4)cs3)nc3cc(C(=O)NCCCO)ccc32)cc1,11.3%
6,COc1ccc(CNc2nc3c(c(=O)n(Cc4ccc(F)cc4)c(=O)n3C)n2C)cc1,2.27%
7,CC(C)c1ccc(N(CC(=O)Nc2ccc(S(=O)(=O)N3CCOCC3)cc2)S(C)(=O)=O)cc1,21.3%
8,COc1ccc(CCNC(=O)C2CC(=O)N(C3CCCCCCC3)C2)cc1OC (stereo not shown),-9.65%
9,O=C1C(=O)N2C(=C1C(=O)N1CCCCCC1)c1ccccc1CC21CCCC1,16.2%
10,CCCOC(=O)c1cc2ccccc2oc1=O,9.65%
11,O=C(O)c1ccc(COCC(F)(F)F)cc1,7.88%
12,O=S(=O)(NC1CC1)c1ccccc1,14.3%
13,COc1ccc(Cl)cc1NC(=O)CN(C)C(=O)c1ccc2c(c1)OCCO2,14.3%
14,Cc1ccnc(NC(=O)c2cccc(NC(=O)Cc3ccccc3)c2)c1,4.84%
15,COc1ccc(NC(=O)Nc2cccc(F)c2)c(OC)c1,13.8%
16,Cc1ccc(Cc2cnc(NC(=O)/C(C#N)=C/c3ccc(-c4ccccc4[N+](=O)[O-])o3)s2)cc1,20.1%
17,CCC[N+]1(CC#CC(O)(c2ccccc2)C2CCCCC2)CCCCC1.[Br-] (stereo not shown),13.8%
18,CN1C(=O)c2ccc(N3CCCC3)cc2C1=O,14.2%
19,Cc1sc(NC(=O)/C=C/C(=O)O)c(C(N)=O)c1-c1ccc(C(C)(C)C)cc1,2.19%
20,Cc1cccc(Oc2coc3cc(OC(=O)c4cncc(Br)c4)ccc3c2=O)c1,2.87%
21,COc1cc2c(cc1OC)-c1c(OC)c(OC)c(OC)c3ccnc(c13)C2=O,-2.02%
22,COc1ccc(-c2cn(Cc3ccc4ccccc4c3)nn2)cc1,6%
23,CCOc1cc(-c2sc(Nc3cc(C)ccc3OC)n[n+]2-c2ccccc2)ccc1OC.[Cl-],-16.5%
24,COc1cccc(NC(=O)CN(C)C(=O)C2CCN(C(=O)c3ccccc3C)CC2)c1,2.62%
25,CCOc1ccccc1C1C(C#N)=C(N)N(N(C)C)C2=C1C(=O)CCC2 (stereo not shown),11.5%
26,Cc1ccc(S(=O)(=O)NCC[C@@]2(C)C3CCC2(C)C(=O)C3)cc1 (stereo partly shown),12.8%
27,COc1ccc(OCc2nnc(SCC(=O)c3ccccc3)o2)cc1,17.5%
28,COc1ccc(Cn2ccnc2SCC(=O)Nc2ccccc2)cc1,3.43%

row,Compound,"hERG current change (%, negative = inhibition) at 1uM"
1,CS(=O)(=O)N(CC(=O)NC1CCCC1)c1ccc2c(c1)OCCO2,-1.03%
2,O=C(CCCNC(=O)c1ccc(Cl)cc1)Nc1ccc(F)c(S(=O)(=O)N2CCOCC2)c1,-1.65%
3,Cc1cc(C(=O)NNC(=S)NCC2CCCO2)cs1 (stereo not shown),-7.57%
4,O=C(CCc1nc(-c2ccc(Cl)cc2)no1)NC1CCCC1,6.95%
5,Cn1cc(CN2CC3C[C@@H]4CC2C[C@H](C3)C4)c(-c2ccc3c(c2)OCCO3)n1,3.82%
6,Cc1ccccc1NC(=O)c1cn(-c2ccccc2)nc1-c1ccccc1,0.301%
7,O=C1C2CC=CCC2C(=O)N1c1cccc(OS(=O)(=O)c2ccc3ccccc3c2)c1 (stereo not shown),-0.809%
8,CCOC(=O)N1CCC(N2CCCC(CO)(Cc3cccc(OC)c3)C2)CC1 (stereo not shown),-25.6%
9,Cc1ccc(S(=O)(=O)NC2CC2)cc1[N+](=O)[O-],13.4%
10,COc1cc(/C=C(/C(=O)O)c2ccc(-c3ccccc3)cc2)cc(OC)c1OC,15%
11,Cc1ccc(COC(=O)CCc2nc3ccccc3c(=O)[nH]2)cc1,1.05%
12,Cc1cccc2c(=O)c(C(=O)NCc3ccc(F)cc3)c[nH]c12,4.66%
13,O=C(CN1CCN(c2nc(-c3ccc(Cl)cc3)cs2)CC1)NCc1ccco1,-11.4%
14,Oc1ccc2ccccc2c1CN1CC=C(c2ccccc2)CC1,17.5%
15,c1ccc(-c2nnc(-c3c[nH]c4ccccc34)nc2-c2ccccc2)cc1,7.1%
16,COc1ccc(/C=C(\NC(=O)c2ccco2)C(=O)NC(Cc2ccccc2)C(=O)O)cc1 (stereo not shown),7.1%
17,O=C(COC(=O)CNC(=O)c1cccc([N+](=O)[O-])c1)NCc1ccco1,4.92%
18,CN(CC(=O)Nc1cccnc1)S(=O)(=O)c1ccccc1,10.2%
19,CCc1c(C)nc(N)c(C#N)c1-c1ccccc1,10.2%
20,O=C(O)C1CC=CCC1C(=O)N1CCc2ccccc21 (stereo not shown),15.7%
21,Cc1ccc2cc(NC(=O)c3ccccc3)ccc2n1,15.2%
22,CNC(=O)c1cnn(-c2nc(-c3ccc(OC)cc3)cs2)c1C(F)(F)F,13.1%
23,Cc1cc[n+](-c2nc3ccccc3nc2[N-]S(=O)(=O)c2cccs2)cc1C,1.23%
24,COc1ccc(-n2c(C)cc(/C=C3\SC(=S)NC3=O)c2C)cc1,15%
25,Cc1ccc(C(=O)N/C(=C\c2cccs2)C(=O)NCc2ccncc2)cc1,-38.5%
26,CC(=O)Nc1ccc(N(CC(=O)NC2CCCC2)C(=O)CCC(=O)Nc2cc(C)on2)cc1,19.8%
27,O=C(c1cccc2c1-c1ccccc1/C2=N/O)N1CCCCC1,-2%
